This is an account of results in ChEMBL document CHEMBL4888484, “Replenishing the malaria drug discovery pipeline: Screening and hit evaluation of the MMV Hit Generation Library 1 (HGL1) against asexual blood stage Plasmodium falciparum ,using a nano luciferase reporter read-out” (2022).

Structures are written as SMILES. The whole screen tested about 150,000 compounds, of which about 540 (0.36%) showed an effect of 50% or more. The list shows a part of the results.

In this experiment the test system is Plasmodium falciparum. As to the kind of experiment: Primary screen in NF54 nanoGlo assay, in single point, at 2uM, 72h; a lower Z score goes with more inhibition. The note with it: timepoint 72 hour. The class given is functional, Erythrocyte.
For `Cc1ccc(-c2noc(-c3cccn4c(=O)n(CC(=O)N(C)C5CCCCC5)nc34)n2)cc1`, the “% Inhibition” value is -9% and the Z score was determined as 1.18.
As to `Cn1ccc(CC(=O)Nc2c(Cl)cc(F)cc2Br)n1`, the “% Inhibition” value was -4% and the Z score is 0.49.
As to `CC(C)c1cc(NC2CC[S+]([O-])C2)ncn1` (stereo not given), the “% Inhibition” value is -2% and the Z score is recorded as 0.14.
On the same counts, the results for `COc1ccc(CNC(=O)CNS(=O)(=O)Cc2ccccc2)cc1OC` are 1% and -0.15.
For the compound `CCn1c([C@H]2CCN(C(=O)CCC(C)C)C2)nc2cccnc21`, the “% Inhibition” value is given as -7% and the Z score turned out to be 0.79.
Consider `O=C(NC[C@@H](c1ccco1)N1CCOCC1)c1ccco1`, for which the “% Inhibition” value is listed as -5% and the Z score is 0.65.
With `COC[C@H]1CCCN(C(=O)Nc2ccc(-n3cccn3)c(Cl)c2)C1`, the “% Inhibition” value worked out at 4% and the Z score is listed as -0.4.
With `COC[C@H]1CCCCN1C(=O)c1cn(Cc2cccc3ccccc23)nn1`, the “% Inhibition” value is given as -9% and the Z score was found to be 1.18.
For `CC1CN(CCC(=O)N(C)CCC#N)CCC1c1ccccc1` (stereo not given), in that order: -2% and 0.2.
Turning to `CCCCCOCC(=O)NCc1nc(C)c(C(N)=O)s1`, the “% Inhibition” value is on record as -6% and the Z score was found to be 1.26.
Turning to `C=CCn1ncc(-c2cc(-c3ccc(OC)nc3)nc(N)c2C#N)c1C`, the “% Inhibition” value is listed as -7% and the Z score turned out to be 1.38.
`O=C(C#Cc1ccc2c(c1)OCO2)N1CCCC1`: the “% Inhibition” value was -13% and the Z score is given as 2.6.
Regarding `CC(C)C(=O)N1CCc2ccc(OCc3ccc(C(=O)NCc4cccc(F)c4)o3)cc2[C@@H]1c1ccc(F)cc1`, the “% Inhibition” value is on record as -10% and the Z score is listed as 0.98.
For `CCN(CC)C(=O)c1cnc2snc(C)c2c1N1CCC(C(=O)Nc2ccc(Br)c(C)c2)CC1`, in that order: 1% and -0.18.
On to `CN1CC2(C[C@H]1c1nc(-c3ccncc3)no1)CN(C(=O)CCn1cccn1)C2`, for which the “% Inhibition” value was -20% and the Z score is recorded as 2.28.
In the case of `CN=C(NC)N(C)Cc1ccccc1Br`, the “% Inhibition” value turned out to be 4% and the Z score is recorded as -0.42.
In the case of `COC(=O)C[C@H](NC(=O)c1cc(C)sn1)c1ccncc1`, the “% Inhibition” value is 8% and the Z score is -0.99.
On the same counts, the results for `CCCN(Cc1ccc2ncccc2c1)[C@@H](C)C(=O)Nc1ccccc1` are 1% and -0.07.
In the case of `c1cc2c(cc1CN1CCCC3(C1)OCCO3)CCO2`, the “% Inhibition” value is reported as -7% and the Z score is 0.63.
On to `CONC(=O)C1CN(c2nc3c(F)cccc3s2)C1`, for which the “% Inhibition” value is reported as -7% and the Z score was 1.01.
As for `O=C(NCCn1nnc2cc(C(=O)N3CCCCC3)ccc21)NCc1ccco1`, the “% Inhibition” value was -3% and the Z score turned out to be 0.35.
For `O=S(=O)(c1cccc(F)c1)N1CC(c2nc(CCOCC3CCOCC3)no2)C1`, the “% Inhibition” value is reported as -10% and the Z score was 1.29.
For `CC1CN(C2CC2)CC1NC(=O)c1ccc2ncsc2c1` (stereo not given), in that order: -17% and 1.82.
For `CNC(=O)c1cccc(-n2ccnc2-c2ccc(Cl)s2)c1`, in that order: 4% and -0.81.
As to `CC(=O)N1C[C@@H](C(=O)N2CCN(c3ccccn3)CC2)[C@H](c2nc(C)no2)C1`, the “% Inhibition” value is given as -8% and the Z score is on record as 1.17.
Take `COc1ccc(N2CCN3c4ccc(Br)cc4CC4(C(=O)N(c5ccccc5)N=C4C)C3C2)cc1` (stereo not given): the “% Inhibition” value was -4% and the Z score is reported as 0.52.
On to `CN(CCOc1ccc(F)cc1Cl)Cc1ncnn1C`, for which the “% Inhibition” value was -7% and the Z score was determined as 0.65.
For `O=S(=O)(Cc1nnnn1-c1ccccc1)c1ccc(F)cc1`, the “% Inhibition” value is recorded as -10% and the Z score came out at 1.25.
Regarding `COc1ccnc(CN(C)C[C@H]2CCCO2)c1OC`, the “% Inhibition” value is reported as -5% and the Z score is on record as 0.73.
Consider `CC(=O)N1CCC(NC(=O)COc2ccc3ncccc3c2)CC1`, for which the “% Inhibition” value came out at 29% and the Z score was -3.74.
Take `Cc1ncsc1-c1nc(C(C)(C)NS(C)(=O)=O)no1`: the “% Inhibition” value turned out to be 5% and the Z score is given as -0.77.
On the same counts, the results for `O=C(Nc1nc2c(s1)CCC2)c1ccc2c(=O)n3c(nc2c1)CCCCCC3` are 1% and -0.16.
As for `O=C(Nc1ccc(Br)cc1)c1c(F)c(F)c2c(c1F)N(Cc1ccco1)CCS2(=O)=O`, the “% Inhibition” value was found to be 4% and the Z score is on record as -0.48.
For `Cc1ccc(C(=O)N/C(=N/c2ccc3c(c2)OCCO3)NC[C@H]2CCCO2)cc1C`, in that order: -26% and 2.37.
`Cc1cc(NS(=O)(=O)Cc2cccc(C(F)(F)F)c2)n(C)n1`: the “% Inhibition” value is given as -4% and the Z score came to 0.83.
As for `Cc1cc(CNC(=O)N2CC(N3CCCC[C@@H]3C)C2)ccn1`, the “% Inhibition” value is -3% and the Z score is recorded as 0.52.
On to `O=C(NCC[C@H]1CCCN1)c1cn(C(c2ccccc2)c2ccccc2)nn1`, for which the “% Inhibition” value is recorded as 11% and the Z score is on record as -2.11.
As for `O=C(CCS(=O)(=O)c1ccccc1)N(Cc1ccccc1)c1nc2c(Cl)cccc2s1`, the “% Inhibition” value is on record as -13% and the Z score was found to be 1.87.
For `CC(C)CN1CCC([C@H]2c3nccn3CCCN2CC(C)C)CC1`, in that order: 3% and -0.5.
On the same counts, the results for `CN(CC(=O)Nc1ccccc1C(=O)NCCc1ccccc1)Cc1cccs1` are -36% and 4.25.
For `O=C(NCc1cccnc1)c1coc(COc2cccc(F)c2)n1`, in that order: 1% and -0.28.
For `O[C@H]1CN(CC2CCC(C(F)(F)F)CC2)CC12CC2` (stereo not given in full), the “% Inhibition” value amounted to 6% and the Z score was -1.
As to `CCN(Cc1nc(C(C)C)no1)S(=O)(=O)[C@H]1CCS(=O)(=O)C1`, the “% Inhibition” value was determined as 3% and the Z score is listed as -0.65.
As to `Cc1ccc(-c2cc(=O)n(CC(=O)Nc3ccc(Cl)cc3)[nH]2)cc1`, the “% Inhibition” value is reported as -10% and the Z score amounted to 1.57.
Take `c1ccc2c(-c3nc4c(c(NCCN5CCCC5)n3)CNC4)c[nH]c2c1`: the “% Inhibition” value was found to be 7% and the Z score is given as -1.47.
On the same counts, the results for `O=C(N[C@H]1CCC[C@H]1CO)c1cc(F)cc2ccoc12` are -3% and 0.45.
On the same counts, the results for `c1cc(Cc2noc(C3CC34CCOC4)n2)no1` (stereo not given) are 0% and 0.04.
For `Cn1cc([C@H](C(=O)Nc2ccc3oc(C4CC4)nc3c2)N2CCOCC2)cn1`, in that order: -8% and 1.24.
`O=C(NCC1CS(=O)(=O)c2ccccc21)NC1C2Cc3cc(F)ccc3C21` (stereo not given): the “% Inhibition” value is reported as -2% and the Z score came out at 0.24.
For `O=C(O)C(CNC(=O)C1CC=CCC1)CC1CC1` (stereo not given), in that order: 13% and -1.56.
On the same counts, the results for `Cc1nc2n(n1)CC(NC(c1ccccc1)c1ccc(F)cn1)CC2` (stereo not given) are -4% and 0.53.
With `Cn1nc(-c2cccnc2)c2c1NC(=O)C[C@@H]2Cc1ccccc1`, the “% Inhibition” value was -6% and the Z score came out at 1.23.
For the compound `O=C(Cn1cnc2c(c1=O)CCC2)Nc1cccc(Cl)c1Cl`, the “% Inhibition” value is given as -4% and the Z score was 0.62.
Consider `O=c1c2ccncc2ncn1[C@@H]1COC2(CCCCC2)C1`, for which the “% Inhibition” value is reported as -3% and the Z score worked out at 0.61.
Take `CC(C)Cc1cc(C(=O)N2CCS(=O)(=O)CC2)on1`: the “% Inhibition” value is listed as -16% and the Z score came out at 1.49.
For the compound `Cc1occc1-c1nnc(NCc2cccc3c2OCO3)o1`, the “% Inhibition” value is -9% and the Z score is 1.19.
For the compound `CS(=O)(=O)N(CCN1CCOCC1)[C@H]1CCCN(C(=O)c2cccc3[nH]ccc23)C1`, the “% Inhibition” value is -4% and the Z score was 0.81.
Regarding `Cn1cc(C2(c3cn(C)c4ccccc34)CCN(C(=O)[C@H]3CC(=O)N(c4ccccc4)C3)CC2)c2ccccc21`, the “% Inhibition” value was -1% and the Z score came to 0.16.
Turning to `CN1C[C@@H](C(=O)Nc2scnc2-c2ccccc2)Cc2ccccc21`, the “% Inhibition” value worked out at 6% and the Z score was -1.04.
As to `CCCCC(=O)N[C@@H](C)c1nnc(C)s1`, the “% Inhibition” value was -4% and the Z score stood at 0.37.
On the same counts, the results for `Cc1ccnc(-n2nccc2NC(=O)NC[C@H]2CCC(C)(C)O2)c1` are -16% and 2.18.
As to `Cc1cc([C@H]2c3nc[nH]c3CCN2CCOCc2ccccc2)on1`, the “% Inhibition” value is recorded as -7% and the Z score is listed as 0.83.
On to `O=C(NCc1ccc(-c2ccoc2)cc1)C1CCOCC1`, for which the “% Inhibition” value is recorded as -6% and the Z score is reported as 0.67.
`CC(C)C[C@]1(CO)CCCN1C(=O)NCCc1cccnc1`: the “% Inhibition” value was -18% and the Z score was found to be 2.48.
With `CN1CCc2ccc(S(=O)(=O)NCc3nnc(C4CC4)o3)cc21`, the “% Inhibition” value is recorded as -10% and the Z score came to 1.52.
Regarding `CCC1CCN(C(=O)c2ccn3nccc3n2)CC1`, the “% Inhibition” value was determined as 21% and the Z score is reported as -2.48.
For the compound `Cc1c(C(=O)O)nn(-c2ccc(F)cc2)c1Oc1ccc(NC(=O)CC(C)C)cc1S(=O)(=O)NC(C)C`, the “% Inhibition” value is given as -5% and the Z score is listed as 0.48.
For `CCCN(Cc1cn2c(C)cc(C)nc2n1)CC(F)(F)F`, in that order: -5% and 0.65.
On to `COC1(CC(=O)Nc2ccncc2C#N)CCC1`, for which the “% Inhibition” value was 6% and the Z score is given as -0.71.
`COc1cc(CN2CCC[C@H](NC(=O)OC(C)(C)C)C2)sn1`: the “% Inhibition” value was -3% and the Z score is 0.4.
For the compound `CCn1nccc1C(=O)Nc1ccccc1Oc1ccccc1`, the “% Inhibition” value is reported as -16% and the Z score is 2.77.
With `O=C(NCc1cccs1)N1CC[C@H](Oc2cnsn2)C1`, the “% Inhibition” value was -8% and the Z score turned out to be 1.55.
For `COCCn1nnnc1[C@]1(N2CCOCC2)CCCN(C(=O)c2ccc3[nH]ccc3c2)C1`, in that order: -4% and 0.63.
Turning to `COc1nc2c(c(C)nn2-c2ccc(C)cc2)c(C)c1CCC(=O)NCc1ccc(F)cc1`, the “% Inhibition” value was -8% and the Z score is listed as 1.23.
Regarding `CN(C)C1=NC2(CCN(Cc3ccc([C@@H]4CCCO4)s3)CC2)C(=O)N1`, the “% Inhibition” value is recorded as -10% and the Z score amounted to 1.25.
As for `Cc1ccc(Br)c(CNC(=O)NCc2cn(C)cn2)c1`, the “% Inhibition” value is -14% and the Z score amounted to 2.68.
Take `O=c1c2c(nc(NCCO)n1C1CCCCC1)-c1ccccc1CC21CCCCC1`: the “% Inhibition” value is on record as -20% and the Z score was found to be 2.55.
Turning to `CC(=O)c1ccc(S(=O)(=O)N2CCOc3ccc(COCc4ccc(F)cc4)cc3C2)cc1`, the “% Inhibition” value was found to be 4% and the Z score was -0.6.
On to `Cn1nccc1-c1cn(CC(=O)Nc2ccc3c(c2)CCC3)nn1`, for which the “% Inhibition” value is 0% and the Z score is given as -0.04.
As for `Cc1cc(C(=O)Nc2nnc(-c3csc(C)n3)o2)no1`, the “% Inhibition” value is listed as -16% and the Z score is 2.4.
`CC(=O)c1cc(CN2CCC3(CC2)CN(CCC(C)C)C(=O)O3)n(C)c1`: the “% Inhibition” value was 4% and the Z score is reported as -0.38.
Consider `C=CCN(c1ccccc1)S(=O)(=O)C[C@H](C)OC`, for which the “% Inhibition” value is on record as -9% and the Z score was 1.73.
On to `CC(=O)c1sc(-c2ccoc2)nc1C`, for which the “% Inhibition” value is given as -9% and the Z score worked out at 1.78.
For `c1ccc(NC(Nc2nnn[nH]2)=C(c2ccccc2)c2ccccc2)cc1`, in that order: 38% and -4.88.
For `CC(C(=O)NC[C@H]1CCc2ccccc2O1)n1ccnc1` (stereo not given in full), in that order: -5% and 0.72.

Usually % Inhibition stands for the change of the read-out against control, counted positive when it falls.
